From the RNAGym collection of RNA variant scans (doi:10.1093/nar/gkz1192)
Read counts are not given, so values of variants with three or more changes are uncertain.

B1: CPEB3 Ribozyme (parent)
chain: UAACAGGGGGCCACAGCAGAAGCGUUCACGUCGCAGCCCCUGUCAGAUUCUGGUGAAUCUGCGAAUUCUGCUGUAUAUCUC

Variants of: B1
Assay: self-cleavage, relative activity (ratio to wild type); higher = more cleavage; in vitro, sequencing
Procedure, shortened: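 After error-prone PCR and barcoding, CPEB3 ribozyme mutant libraries were transcribed with T7 RNA polymerase at 37°C for 5 hours, then given 15 min with DNase I before an EDTA stop, and they cleaved during both steps. Reverse transcription with template switching preceded Illumina sequencing. Relative activity divides a variant's cleaved/total read fraction by the unmutated ribozyme's. At least 5 reads were required per variant, and three batches were averaged.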
UAACAGGGGGCCACAGCAGAGGCGUUCACGUCGCAGCCCCCGUCAGGUUCUGGUGAAUCUGCGAAUUCUGCUGUAUAUCUC [A21G U41C A47G] gave a self-cleavage of 0.38. UAACAGGGGGCCACAGCAGAGGCGUUCACGUCGCAGCCCCCGUCAGGUUCUGGCGAAUCUGCGAAUUCUGCUGUAUAUCUC [A21G U41C A47G U54C] gave a self-cleavage of 0.56. UAACAGGGGGCCACAGCAGAGGCGUUCACGUCGCAGCCCCCGUCAGAUUCUGGUGGAUCUGCGAAUUCUGCUAUAUAUCUC [A21G U41C A56G G73A] gave a self-cleavage of 0.83. UAACAGGGGGCCACAGCAGAGGCGUUCACGUCGCAGCCCCCGUCAGAUUCUGGUGGAUCUGCGAAUUCUGCUGUAUAUCAC [A21G U41C A56G U80A] gave a self-cleavage of 0.57. UAACAGGGGGCCACAGCAGAGGCGUUCACGUCGCAGCCCCCGUCAGAUUCUGGUGAGUCUGCGAAUUUUGCUGUAUAUCUC [A21G U41C A57G C68U] showed a self-cleavage of 0.25. Work on UAACAGGGGGCCACAGCAGAGGCGUUCACGUCGCAGCCCCCGUCAGAUUCUGGUGAAUCUGCGUAUUCUGCAGUAUAUCUC [A21G U41C A64U U72A] yielded a self-cleavage of 0.1. UAACAGGGGGCCACAGCAGAGGCGUUCACGUCGCAGCCCCCGUCAGAUUCUGGUGAAUCUGCGAAUUCUGCUGUAUGUCUC [A21G U41C A77G] gave a self-cleavage of 0.49. Variant UAACAGGGGGCCACAGCAGAGGCGUUCACGUCGCAGCCCCCGUCAGAUUAUGGUGAAUCUGCGAAUCCUGCUGUAUAUCUC [A21G U41C C50A U67C] has a self-cleavage of 0.03. Work on UAACAGGGGGCCACAGCAGAGGCGUUCACGUCGCAGCCCCCGUCAGAUUCUGGUGAAUCUGCGAAUUGUGCUGUAUAUCUC [A21G U41C C68G] yielded a self-cleavage of 0.14. UAACAGGGGGCCACAGCAGAGGCGUUCACGUCGCAGCCCCCGUCAGACUCUGGUGAAUCUGCGAUUUCAGCUAUAUAUCUC [A21G U41C U48C A65U U69A G73A] showed a self-cleavage of 0.07. In the case of UAACAGGGGGCCACAGCAGAGGCGUUCACGUCGCAGCCCCCGUCAGAUUCUGGCGAAUCUGCGAAUUCUGCUGUAUAUCUC [A21G U41C U54C], the self-cleavage is reported as 0.63. UAACAGGGGGCCACAGCAGAGGCGUUCACGUCGCAGCCCCCGUCAGAUUCUGGUGAAUCUGCGAACUCAGCUGUAUAUCUC [A21G U41C U66C U69A] gave a self-cleavage of 0.19. With UAACAGGGGGCCACAGCAGAGGCGUUCACGUCGCAGCCCCCGUCAGAUUCUGGUGAAUCUGCGAAUCCUGCUGUAUAUCAC [A21G U41C U67C U80A] the self-cleavage was 0.15. Variant UAACAGGGGGCCACAGCAGAGGCGUUCACGUCGCAGCCCCCGUCAGAUUCUGGUGAAUCUGCGAAUUCUGCCGUAUAUCUC [A21G U41C U72C] has a self-cleavage of 0.56. With UAACAGGGGGCCACAGCAGAGGCGUUCACGUCGCAGCCCCCGUCAGAUUCUGGUGAAUCUGCGAAUUCUGCUGUAUAUCCC [A21G U41C U80C] the self-cleavage was 0.71. UAACAGGGGGCCACAGCAGAGGCGUUCACGUCGCAGCCCCGGUCAGACUCUGGUGAACCUGCGAAUUCUGCUGUAUAUCUC [A21G U41G U48C U58C] gave a self-cleavage of 0.31. In the case of UAACAGGGGGCCACAGCAGAGGCGUUCACGUCGCAGCCCCGGUCAGAUACUGGUGAAUCUGCGAAUUCUGCUGUAUAUCUC [A21G U41G U49A], the self-cleavage is reported as 0.27. UAACAGGGGGCCACAGCAGAGGCGUUCACGUCGCAGCCCCUGACAGAUUCUGGUGUAUCUGCGAAUUCUGCUGUAUAUCUC [A21G U43A A56U] showed a self-cleavage of 0.29. In the case of UAACAGGGGGCCACAGCAGAGGCGUUCACGUCGCAGCCCCUGACAGAUUCUGGUGAGUCUGCGAAUACUGCUGUAUAUCUC [A21G U43A A57G U67A], the self-cleavage is reported as 0.29. With UAACAGGGGGCCACAGCAGAGGCGUUCACGUCGCAGCCCCUGACAGAUUAGGGCGAAUCUGCGAACUCUGCUGUAUAUCUC [A21G U43A C50A U51G U54C U66C] the self-cleavage was 0.44. With UAACAGGGGGCCACAGCAGAGGCGUUCACGUCGCAGCCCCUGACAGAUUCUGGAGAAUCUGCGAAUUCUGCUGUAUAUCCC [A21G U43A U54A U80C] the self-cleavage was 0.84. UAACAGGGGGCCACAGCAGAGGCGUUCACGUCGCAGCCCCUGACAGAUUCUGGUGAAUCCGCGAAUUCUGCUGUAAAUCUC [A21G U43A U60C U76A] showed a self-cleavage of 0.11. UAACAGGGGGCCACAGCAGAGGCGUUCACGUCGCAGCCCCUGACAGAUUCUGGUGAAUCUGCGAAUCGUGCUGUAUAUCUC [A21G U43A U67C C68G] showed a self-cleavage of 0.12. Variant UAACAGGGGGCCACAGCAGAGGCGUUCACGUCGCAGCCCCUGACAGAUUCUGGUGAAUCUGCGAAUUCAGCUGUAUAUCUC [A21G U43A U69A] has a self-cleavage of 0.2. Work on UAACAGGGGGCCACAGCAGAGGCGUUCACGUCGCAGCCCCUGACAGAUUCUGGUGAAUCUGCGAAUUCUGCGGUAUAUCUC [A21G U43A U72G] yielded a self-cleavage of 0.55. Work on UAACAGGGGGCCACAGCAGAGGCGUUCACGUCGCAGCCCCUGCCUGAUUCUGGUGAAUCUGCGAAUUCUGCUGUAUAUCUC [A21G U43C A45U] yielded a self-cleavage of 0.26. For UAACAGGGGGCCACAGCAGAGGCGUUCACGUCGCAGCCCCUGCCUGUUCCUGGUGAAUCUGCGAAUUCUGCUGUAUAUCUC [A21G U43C A45U A47U U49C], the self-cleavage was 0.07. With UAACAGGGGGCCACAGCAGAGGCGUUCACGUCGCAGCCCCUGCCAGAUUCUGGUGGAUCCGCGAAUUCUGCUGUAUAUCUC [A21G U43C A56G U60C] the self-cleavage was 0.16. In the case of UAACAGGGGGCCACAGCAGAGGCGUUCACGUCGCAGCCCCUGCCAGAUUCUGGUGGAUCUGCGAAUUCCGCAGUAUAUCUC [A21G U43C A56G U69C U72A], the self-cleavage is reported as 0.07. Work on UAACAGGGGGCCACAGCAGAGGCGUUCACGUCGCAGCCCCUGCCAGAUUCUGGUGUAUCCGCGAAUUCUGCUGUAUAUCUC [A21G U43C A56U U60C] yielded a self-cleavage of 0.09. Work on UAACAGGGGGCCACAGCAGAGGCGUUCACGUCGCAGCCCCUGCCAGAUUCUGGUGAAUCUGCGAGUUCUGCUGUAUAUCUC [A21G U43C A65G] yielded a self-cleavage of 0.14. In the case of UAACAGGGGGCCACAGCAGAGGCGUUCACGUCGCAGCCCCUGCCAGAUUCUGGUGAAUCUGCGAGUUCAGCUGUAUAUCUC [A21G U43C A65G U69A], the self-cleavage is reported as 0.26. Variant UAACAGGGGGCCACAGCAGAGGCGUUCACGUCGCAGCCCCUGCCAGAUUCUGGUGAAUCUGUGAAUUCUGCUGUAUAUCUC [A21G U43C C62U] has a self-cleavage of 0.11. Work on UAACAGGGGGCCACAGCAGAGGCGUUCACGUCGCAGCCCCUGCCAGAUUCUGGUGAAUCUGCGAAUUCUGUUGUAUAUCUC [A21G U43C C71U] yielded a self-cleavage of 0.26.
